Publication PMC6919601, “Identification of Plasmodium dipeptidyl aminopeptidase allosteric inhibitors by high throughput screening” (PLoS ONE, 2019)
The whole screen tested about 110,000 compounds, of which about 230 (0.21%) showed an effect of 50% or more. This is one part of the list.

target: DPAP1 (Plasmodium falciparum, UniProt Q8IIJ9); assay: primary screen, percent inhibition; read by cleavage of a fluorogenic dipeptide substrate; higher = more effect of the substance; set-up: species or system P. falciparum D10 trophozoite lysates; single well
Sequence (Q8IIJ9 whole entry, looked up): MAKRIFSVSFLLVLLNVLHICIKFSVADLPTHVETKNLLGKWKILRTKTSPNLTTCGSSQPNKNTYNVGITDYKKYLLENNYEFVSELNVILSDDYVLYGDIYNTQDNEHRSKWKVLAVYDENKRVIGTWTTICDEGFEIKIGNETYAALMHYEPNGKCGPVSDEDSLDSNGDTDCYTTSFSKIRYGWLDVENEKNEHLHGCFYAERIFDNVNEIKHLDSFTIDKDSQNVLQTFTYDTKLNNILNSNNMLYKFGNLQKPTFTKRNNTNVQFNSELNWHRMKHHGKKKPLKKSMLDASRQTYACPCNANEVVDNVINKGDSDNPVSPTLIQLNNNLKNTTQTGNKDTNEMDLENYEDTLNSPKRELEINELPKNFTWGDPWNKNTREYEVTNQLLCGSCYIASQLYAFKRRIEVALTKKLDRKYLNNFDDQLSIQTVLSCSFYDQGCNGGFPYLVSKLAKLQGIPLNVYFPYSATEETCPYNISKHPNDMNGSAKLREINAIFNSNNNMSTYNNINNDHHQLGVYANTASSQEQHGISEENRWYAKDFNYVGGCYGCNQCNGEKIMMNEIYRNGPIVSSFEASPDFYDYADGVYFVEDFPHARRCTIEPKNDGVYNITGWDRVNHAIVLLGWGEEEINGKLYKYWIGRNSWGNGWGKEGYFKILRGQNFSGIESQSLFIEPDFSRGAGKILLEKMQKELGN
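Also: 30 min substrate incubation versus DMSO and 10 µM JCP410 controls.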

Compound | % Inhibition @ 10 uM
N#CCNC(=O)C1(NC(=O)c2cccc(Br)c2)CCCCC1 | 4.45%
CC1CN(C(=O)C2CCCC2)C(C)CN1C(=O)C1CCCC1 (stereo not shown) | 0.161%
CC1(C)Cc2c(sc(NC(=O)c3ccccc3Cl)c2C(=O)O)CO1 | -6.69%
CC(NC(=O)C(=O)NCc1ccc(Cl)cc1)c1ccccc1 (stereo not shown) | -4.01%
COc1ccccc1C1C2=C(O)CC(C)(C)CC2=NC(C)=C1C(=O)Nc1c(F)cccc1F (stereo not shown) | -5.34%
COc1cc(OC)cc(C(=O)Nc2ccc(F)c(Cl)c2)c1 | 3.44%
O=C1c2cccnc2C(=O)N1Cc1ccc(S(=O)(=O)NCCc2ccc(Cl)cc2)s1 | -3.66%
Cc1ccccc1OCC(=O)Nc1cccnc1 | -4.72%
O=C(NCCN1CCN(Cc2ccccc2)CC1)C1c2ccccc2C(=O)N2CCc3ccccc3C12 (stereo not shown) | 0.231%
O=C(O)C1C2CCC(O2)C1C(=O)Nc1cccc(O)c1 (stereo not shown) | 0.231%
COc1cc(/C=C2/C(=N)N3C=C(C)SC3=NC2=O)ccc1OCc1cc(=O)n2nc(C)sc2n1 | -7.65%
O=C(CN1C(=O)c2ccccc2C1=O)Nc1ccc(Cl)cn1 | 1.37%
COc1cccc(N2CCN(Cc3cccc(Oc4ccc(Cl)cc4)c3)CC2)c1 | -5.31%
CCn1c2ccccc2c2cc(CN3CCCC3)ccc21 | -2.21%
CCCN(CCO)CC1CCCCC1 | -0.0494%
O=C(NCc1ccccc1Cl)C1CCN(S(=O)(=O)c2ccc(F)cc2)CC1 | -1.92%
Cc1ccc(OCCCCN2CCCCC2)cc1C | 2.8%
Cc1ccc2c(CNCc3ccccc3F)c(C(=O)O)n(Cc3cccc(F)c3)c2c1 | -6.22%
Cc1ccc2oc(-c3ccc(C)c(NC(=O)c4ccc(Cl)cc4Cl)c3)nc2c1 | -0.693%
O=C(O)CCC(=O)Nc1sc2c(c1C(=O)Nc1ccccc1)CCC2 | 2.69%
CC12CC3CC(C)(C1)CC(NC(=O)SCc1ccccc1)(C3)C2 | -1.5%
O=C(NCCCN1CCCC1=O)C1CCN(c2nnc(-n3cccc3)s2)CC1 | -4.04%
CCn1nc(C)c(NC(=O)c2cccc(C)c2)c1C | -5.92%
CCSc1nc2c(c(=O)n(C)c(=O)n2C)n1Cc1ccc(Cl)cc1 | 3.05%
O=C(NCc1ccccn1)C(Cc1ccccc1)NS(=O)(=O)c1cccc2nsnc12 (stereo not shown) | -3.23%

Compound | % Inhibition @ 10 uM
COc1ccc(C(=O)NC(Cc2ccccc2)c2ccccc2)c(OC)n1 (stereo not shown) | -5.03%
CCc1nn(-c2cc(Oc3ccc(C)cc3)ncn2)c(N)c1C#N | -2.24%
Cc1ccc(-n2ncnc2-c2cccc(Cl)c2Cl)cc1Cl | 5.2%
CCc1ccc(-n2nc(C)c3c(C)cc(=O)n(CC(=O)NCc4ccc(OC(C)C)cc4)c32)cc1 | 3.97%
COC(=O)c1sc(N2C(=O)c3oc4cc(C)c(C)cc4c(=O)c3C2c2ccc(F)cc2)nc1C (stereo not shown) | -1.55%
COc1cc(C(=O)Nc2ncc(Cc3ccc(F)cc3)s2)cc(OC)c1OC | -17.7%
CNC(=O)CN(c1cccc(OC)c1)S(=O)(=O)c1ccccc1 | -1.95%
CCN1CCCC1CNS(=O)(=O)c1c(C)nc2scc(C)n2c1=O (stereo not shown) | -1.02%
Cc1ccccc1Cc1c(C)nc2nc(SCC(=O)NCCC(C)C)nn2c1C | -1.29%
O=C(COc1ccc(F)cc1)NCCN1CCOCC1 | -1.04%
COc1ccc(Br)cc1/C=c1/sc2nc3ccccc3n2c1=O | 6.12%
Oc1nc(-c2ccccc2Cl)c2cc(Br)ccc2n1 | 0.962%
CCOC(=O)C1=C(C)N(Cc2ccco2)C(=O)C1(NC(=O)c1ccccc1)C(F)(F)F (stereo not shown) | -2.63%
CC1CCCCN1CCCNC(=O)Cn1nc(-c2ccccc2)ccc1=O (stereo not shown) | 1.97%
CCOc1nc(NC(=O)NS(=O)(=O)Oc2ccc(F)cc2)nc(-c2ccccc2)n1 | -0.924%
COC(=O)C1=C(C)N(C)C(C)=C(C(=O)OC)C1c1ccc(C(=O)OC)cc1 | -8.04%
COc1ccc(NC2=NC(=O)/C(=C\c3ccc(OC)c(OC)c3OC)S2)cc1 | -4.13%
O=C(CN1C(=O)CSc2ncccc21)N1CCN(C2CCCCC2)CC1 | -6.01%
c1ccc2c(OCCCn3ccnc3)cccc2c1 | 4.6%
C=CCOc1ccc(/C=C2/SC(=O)N(CN3CCCCC3)C2=O)cc1 | -9.45%
CN1CCCN(CC2CC=CCC2)CC1 (stereo not shown) | -0.603%
O=C(CCCn1sc2ccccc2c1=O)N1CCN(Cc2ccc3c(c2)OCO3)CC1 | 3.68%
CC(C)CCn1cnc2c(NCc3ccccc3)ncnc21 | -3.27%
Cc1ccc(-c2cc(C(=O)N3CCC4(CC3)OCCO4)[nH]n2)cc1 | -7.15%
N#CCNC(=O)[C@H](Cn1ccnn1)NC(=O)OCc1ccccc1 | -5.2%

Compound | % Inhibition @ 10 uM
CCc1ccccc1NC(=O)Cc1cccs1 | -2.18%
Cc1ccc(NC(=O)COc2ccc(C)cc2C)nc1 | 3.24%
CCN1CCN(Cc2ccc(Br)s2)CC1 | 3.1%
Cc1ccc(NS(=O)(=O)c2ccc(Cl)cc2)cc1 | -4.08%
c1ccc2c(c1)OCC(CNc1nnc(Cc3ccncc3)c3ccccc13)O2 (stereo not shown) | 0.44%
CC(=O)c1nn(-c2cccc(Br)c2)c(-c2ccco2)c1C#N | -1.64%
Cc1ccc(NS(=O)(=O)c2ccc(C(C)(C)C)cc2)cn1 | -7.25%
CCN(CC)c1nc(N)nc(-c2cc(Cl)ccc2OC)n1 | 2.27%
CCCOc1ccc(C2C(C(=O)c3cc4ccccc4o3)=C(O)C(=O)N2CCN(C)C)cc1 (stereo not shown) | -3.36%
CCn1c2ccccc2c2cc(CN3CCC(C(N)=O)CC3)ccc21 | -4.75%
Cc1c(Cl)cccc1Nc1nc(N)nc(CSc2ncccn2)n1 | 0.583%
C=CC(=C)CC(NC)c1ccccc1 (stereo not shown) | 6.24%
CCOc1ccc2c(c1)c(C(C)=O)c(C)n2-c1ccccc1 | -1.47%
C#CCSc1nc2sc3c(c2c(=O)n1C)CCC3 | 2.38%
O=C1c2ccncc2C(=O)N1c1ccc(Br)cc1 | -5.23%
Cn1c(=O)c2sccc2n2c(CCCC(=O)N3CCC(C(N)=O)CC3)nnc12 | 1.02%
CCCC1=C(C(=O)OCC)C(c2ccc(OC)c(OC)c2)NC(=O)N1 (stereo not shown) | 2%
CC(C)Cn1cc(NC(=O)NCc2ccc(F)cc2)c2ccccc2c1=O | 3.26%
CC(C)N(C)C1CCN(S(=O)(=O)c2csc(C(N)=O)c2)CC1 | -5.31%
COc1ccccc1/C=C/C1=NC(=C\c2cccc(OC)c2OC)/C(=O)O1 | 1.28%
Cc1c(-c2ccccc2)cn2c1-c1ccc(C)n1CC2 | 6.24%
Cc1ccc(S(=O)(=O)NC(CC(=O)O)c2cccs2)cc1 (stereo not shown) | 3.64%
Oc1ccc2c(CN3CCOCC3)c(O)ccc2c1CN1CCOCC1 | -3.92%
CCC(C)NC(=O)C1CCN(S(=O)(=O)N2CCOCC2)CC1 (stereo not shown) | 1.85%
CCC1CCCCN1C(=O)c1cn(CC)c(=O)c2cc(OC)c(OC)cc12 (stereo not shown) | 2.64%

Compound | % Inhibition @ 10 uM
Cc1ccc(CNC(=O)C(C)n2c(=O)cc(C)c3c(C)nn(-c4ccccc4)c32)o1 (stereo not shown) | -2.11%
CC(=O)N[C@H]1[C@H](OCCCN2C(=O)c3ccccc3C2=O)O[C@H](CO)[C@@H](O)[C@@H]1O | 6.31%
CCOc1ccc2oc(=O)cc(CN3CCN(C(=O)c4ccccc4)CC3)c2c1 | -1.07%
CN(C)CCCN(CCCN(C)C)Cc1ccc(Cl)c(Cl)c1 | -2.34%
CCc1nn(C(C)C(=O)NCCCN2CCCC2=O)c(=O)c2cc3occc3n12 (stereo not shown) | -5.63%
COc1ccc(C(=O)NCC(=O)Nc2nc3ccccc3s2)cc1 | -6.74%
COc1cc(-c2nc(S(=O)(=O)c3ccc(C)cc3)c(N3CCOCC3)o2)cc(OC)c1OC | -1.32%
Cc1ccc(-c2cc(C(=O)N3CCCCCC3)c3ccccc3n2)o1 | 14.6%
COC(=O)c1cc2c(Cl)nc3ccc(C)cc3c2s1 | 3.54%
CC(C)(C)OC(=O)N1CCC(c2c(C(=O)Nc3cccnc3)cnn2-c2ccccc2Cl)CC1 | 5.25%
COc1ccccc1NC(=O)C1=C(C)N=C2CC(C)(C)CC(O)=C2C1c1cccc(OC)c1OC (stereo not shown) | 1.35%
COCCCNC(=O)CCN1N=C(c2ccc(OC)cc2)CCC1=O | -0.0542%
C=CCN1C(=O)[C@H]2Cc3c([nH]c4ccccc34)[C@@H](c3ccc(O)cc3)N2C1=S | 3.05%
COCc1cc(C2C(C#N)=C(N)OC3=C2C(=O)CC(C)(C)C3)ccc1OC (stereo not shown) | -7.4%
Cc1ccccc1CN1C(=O)C(=O)c2ccccc21 | -2.53%
O=C(c1nc(-c2ccncc2)no1)N1CCC2(CC1)OCCO2 | -5.05%
COc1ccc(/N=C2\SC(CC(=O)Nc3ccc(F)cc3)C(=O)N2C)cc1 (stereo not shown) | -5.23%
CSCCC(NC(=O)/C(=C/c1ccc(Cl)cc1)NC(=O)c1ccccc1)C(=O)O (stereo not shown) | -1.19%
Cc1cc(C)c(C(N)=O)c(Nc2cc(Cl)ccc2Cl)n1 | -3.09%
COc1ccc(C2C(C#N)=C(N)Oc3[nH]nc(C45CC6CC(CC(C6)C4)C5)c32)cc1OC (stereo not shown) | 5.87%
CCOc1ccc(C2CC(=O)N=C(NC(=O)c3cccc(F)c3)N2)cc1 (stereo not shown) | -3.3%
COc1ccc(CC(=O)Nc2ccc(Nc3ccccc3)cc2)cc1 | 3.8%
OCc1c(O)cnc2ccccc12 | -3.65%
Oc1ccc(Cl)cc1-c1cnc2ccccc2n1 | -3.85%
Cc1ccc(CN(C(=O)/C=C\C(=O)O)C(C)(C)C)cc1 | 1.7%
